Assay results reported in the supplement of paper PMC4604168 (melanoma cell lines).
The list shows a part of the results. Single values are uncertain, as repeats are few or missing.

What was measured:
Experiment in all cases: cell count relative to DMSO control; melanoma cells; higher = more viable cells
Details in all cases: library dose: standard library concentration; 72 h; first compound 2 µM
[1] = system: G361
[2] = system: IPC-298
[3] = system: IST-MEL1
[4] = system: LB2518-MEL
[5] = system: LOXIMVI
[6] = system: MEL-HO
[7] = system: MZ2-MEL
[8] = system: MeWo
[9] = system: RPMI7951
[10] = system: RVH-421
[11] = system: SkMel28
[12] = system: SkMel2
[13] = system: SkMel30
[14] = system: SkMel5
[15] = system: UACC257
[16] = system: UACC62
[17] = system: WM115
[18] = system: WM1716
[19] = system: WM3526
[20] = system: WM1745
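Further: cells treated in 1,536-well plates, then fixed and DAPI-stained, with nuclei counted from automated high-throughput microscope images.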

SMILES	cell count [1] [%]	cell count [2] [%]	cell count [3] [%]	cell count [4] [%]	cell count [5] [%]	cell count [6] [%]	cell count [7] [%]	cell count [8] [%]	cell count [9] [%]	cell count [10] [%]	cell count [11] [%]	cell count [12] [%]	cell count [13] [%]	cell count [14] [%]	cell count [15] [%]	cell count [16] [%]	cell count [17] [%]	cell count [18] [%]	cell count [19] [%]	cell count [20] [%]
Cn1sc(=O)n(Cc2ccccc2)c1=O + COc1ccc(-c2ccc3c(N4CCOCC4)nc(N4C[C@@H](C)O[C@@H](C)C4)nc3n2)cc1CO [KU0063794] (partner dose 0.1 µM)	69.7	72.8	88.5	97.6	65.9	74.7	83.6	70.2	71.1	102	74.5	83.6	95.3	69.6	90.7	78.1	93.3	83.5	73.9	–
Cn1sc(=O)n(Cc2ccccc2)c1=O + Cc1cc([N+](=O)[O-])ccc1NS(=O)(=O)c1cc(Cl)ccc1Cl [FH535] (partner dose 5 µM)	34.9	49.6	49.3	78.4	99.7	48.1	64	82.8	74	72.8	69.8	78.1	104	69.4	66.4	81.5	86.9	77.2	81.4	–
CCCCCCCCCCCCCCCCCCOP(=O)([O-])OC1CC[N+](C)(C)CC1 [Perifosine] + CCCCCCCCCCCC1=C(O)C(=O)C=C(O)C1=O [Embelin] (partner dose 6 µM)	77	66.3	63.5	82.9	92.5	70.8	91.2	108	60.4	66.1	72	73.6	114	110	92.7	75.7	88.8	88.1	84.4	–
C[C@@H](N)c1ccc(C(=O)Nc2ccnc3[nH]ccc23)cc1 + O=c1cc(-c2cccc3c2Sc2ccccc2S3)oc(N2CCOCC2)c1 [KU55933] (partner dose 5 µM)	54.1	78.6	85.2	85.6	92.8	66.3	51.5	69	60.3	71.8	105	104	102	76.9	65.9	89.5	88.8	39.9	79.3	–
C[C@@H](N)c1ccc(C(=O)Nc2ccnc3[nH]ccc23)cc1 + Oc1nc(-c2ccc(C(F)(F)F)cc2)nc2c1CSCC2 [XAV939] (partner dose 10 µM)	87.8	78.7	92.9	96	83.2	54.1	59.4	65.2	48.5	41.3	79.4	86.2	85.7	65.9	54.5	82.3	74.8	33.9	95	–
C[C@@H](N)c1ccc(C(=O)Nc2ccnc3[nH]ccc23)cc1 + Oc1cc(-c2nc(-c3ccccc3)[nH]c2-c2ccncc2)ccc1Cl [L779450] (partner dose 1 µM)	66.3	101	93.3	109	83.7	83.3	63.8	52	83.4	48.7	52.7	36.4	102	61.6	82.8	62.3	59	58.3	52.3	–
Cn1sc(=O)n(Cc2ccccc2)c1=O + NC1(c2ccc(-c3nc4ccn5c(=O)[nH]nc5c4cc3-c3ccccc3)cc2)CCC1 [MK2206] (partner dose 2 µM)	81.5	83.6	84.6	80	84.1	75.1	92.5	79.8	79.5	76	63.3	73.4	88.2	92.8	88.1	69.6	68.7	101	71.2	92.3
Cn1sc(=O)n(Cc2ccccc2)c1=O + CCN(CC)CCCCNc1ncc2cc(-c3cc(OC)cc(OC)c3)c(NC(=O)NC(C)(C)C)nc2n1 [PD173074] (partner dose 0.5 µM)	88	93.4	93.1	109	81.2	99.3	94.2	81.3	73.1	83.1	84.1	99.4	84.8	93.9	100	61.8	92.3	89.5	90.6	–
CCCCCCCCCCCCCCCCCCOP(=O)([O-])OC1CC[N+](C)(C)CC1 [Perifosine] + CCN(CC)CCCCNc1ncc2cc(-c3cc(OC)cc(OC)c3)c(NC(=O)NC(C)(C)C)nc2n1 [PD173074] (partner dose 0.5 µM)	98.7	115	108	112	91.5	102	108	89.7	45.8	102	99.3	98.9	121	90.2	104	98.5	115	94.5	105	–
Cn1sc(=O)n(Cc2ccccc2)c1=O + O=C(Nc1ccccc1)c1cc([N+](=O)[O-])ccc1Cl [GW9662] (partner dose 10 µM)	82	102	90	90.2	82.7	97.3	79.8	76.3	64.9	80.1	48.2	85.5	86.6	66.8	85.3	80.8	71.7	99.2	80.7	–
